# Assay results: the supplement of paper PMC12632987
# Over roughly 4,500 sequences, “median log2 fold change of GCK-ALFA target abundance (FLAG IP / Myc IP barcode read proportion)” has its median near 0.078; the lowest 2% begin near -0.6. This is one part of the list.
# B1: GBRAP_78_6738 (protein)
# chain: EIEEEIDEALEHLDRASKLAKKLDPETSNELLDLLVDAMSYLLLSEENGPNLEELKEALKHAEKALELAKKIDTEEAKELAEELEKAIEHLKKAIELLEK
# B2: GBRAP_160_4115 (protein)
# chain: MEEKVKTAEDSAKDLEETIKIIEDLSPEEAGILAKVTLGQVLLDASELDEEFEEIEELADAAIEEIEKTAKEDPEKLKEVSLKQLKKLLEALKKKAKELK
# B3: GBRAP_14_3817 (protein)
# chain: MEELKKKIKEILDDLYEELVEDIGLDEEKVKKLIDKALEEIFKALDDPEGSEEKIKEIMEKLKKEIEKLAAELGADEAAAARALVTDAEYEIDEAIEEAK
# B4: GBRAP_128_3248 (protein)
# chain: PNPEVVAYAEKTVEELEKADKETARKIAKDFAEYLKTITDEEAETAIDVVEKNLSKLTVEHLEILADVLREEMPKYTPEKANLVAGLEVEALNEAEEKEE
# B5: GBRAP_160_4768 (protein)
# chain: KEELEKLKKEVEEEFDEAEEMLKESPASEAPTIIRGTMGDVIMLVESSEAVSEELEEKIAEIMDAAEAEAAALADAPVEEHLALLREARDKVLELIEEEI
# B6: GBRAP_137_3677 (protein)
# chain: SKVEITVKEVDGLVEITVLVHDPEKAEEDEEKLLDIAHEVGALAVAIKRNEDGSLEVTIVVPEEKGEEALEKVLELAKEYDEVVIRREKDGEVTEEVLRK
# B7: GBRAP_43_5787 (protein)
# chain: MEELVEGTLDFAFTALETPEITDETKGRIVEDAVEFALDEGLLTEETLTELLEALRESVSPEVFAETLERILERAKELGAPQSLIDIIEEALEEAREEIE
# B8: GBRAP_35_5523 (protein)
# chain: SSDETETEMLVSTIEDLVKAIPDLPVETAAEIATKLVELAERLAEDVKDNLESLKKIKEAIEKLIEALKKHHGDSPLAQEVIKKAEEVKEKIEKLIKEIE
# B9: GBRAP_184_5062 (protein)
# chain: KTLEEEIEVENLEEAREKLAELAEKVKDFKGDLVVLLKLPRPDREIIRAALRGLAAIKEAGYVTRVTLGIDVELSEEEVDFALAEADEAGVRVVVALSEE
# B10: GBRAP_160_4101 (protein)
# chain: SEKVEEVIKEIDEIEEETLEMIEGETIEQRATIVRGAGGEVIMLLEESGIVSDEVIDFADEEFDKLVETILANPELTEEEIKELIREVRERIKKKIKEDA
# B11: GBRAP_166_4901 (protein)
# chain: SREEEIERLLAEARRLIEEFPELDEEGKWEAILEFGELLRRLRELGVPEETLLELVRELLEAAKEAGLNVKVVAGTIANVAEFDEEFIDKLDEIAEEVAK
# B12: GBRAP_9_7105 (protein)
# chain: KEEFAKKVKEIILDAREEIKKVVPEELKPLVDKLTEELLKEIEKLEKDPNTTKEEIAKKAKEGLKKMAEELKKKLSPEIAAAVEAITLTAIEEIDELEEE
# B13: GBRAP_35_5533 (protein)
# chain: NSDEEIAEMLLNTMEALVDALPDVSPEQQLALARHLIRLAEDFLELKTKSAELIKRLIEVLERAIELIKKSSLPPEQQEELIRELEELRERAKELLKEVE
# B14: GBRAP_45_5802 (protein)
# chain: DAALAAAKKELRELLEKILEEVKKLLEKDPETFGKVKELIEKALKLLDAGPDTVEKAQELLELVEEALKLLASSPHATGELLDLALEAVNKAADILELLK
# B15: GBRAP_160_4297 (protein)
# chain: MEKVEKALKFIDEEAEEIISELPNVSHEQAVVLVAGRFGEIIRYLEEEEVVSDEDLEKIDEIVRETVEYLKSHPDLSVEEIKEKIKEAAEKIKKIIKEEA
# B16: GBRAP_52_6280 (protein)
# chain: SMEEVEATAKEIIALVKAGDLEGAIAKAKEAVKKFSLEEVLELGNLLIEAIAELPDEQVDLMMEVVDTLADELEKRFGEESLADVLRARAAAAAYARLQA
# B17: GBRAP_128_3353 (protein)
# chain: LDEEFLAEVEETVERMKEADVEEVYELTRELVDRISKASPEEQEAAFEILRKALPEFDAEKLEAIADAIEEKLPELDPYTAELAADVLVEALNLAEEKEE
# B18: GBRAP_52_6093 (protein)
# chain: MEEKIKEYAEKILEAAKAGDVEKVTELLLKAVEELSDEEVLEMGRLFADLASKLPKEELEKVTEVVIEALDKVAEKTGKEELMDELEAYLAAKAYKALQK
# B19: GBRAP_160_4432 (protein)
# chain: SEKLEKAKKEIKELFEETLEMMKGQTAEERITVLRVTEGEIKLMLEELGLLTDEVDKVIDEVFDEIIAYVEANPDITDEELKELLEEAVKKIEEELEKVS
# Biological target: GABARAP, O95166
# Assay: median log2 fold change of GCK-ALFA target abundance (FLAG IP / Myc IP barcode read proportion) (log2 ratio); each designed protein is fused to an ALFA-tag nanobody in HEK293 cells to bring the named protein to FLAG-tagged glucokinase (GCK); Myc marks an untargeted standard; higher = target protein stabilised (more abundant)
# Conditions: target protein: 3xFLAG-MCP-GCK-ALFA reporter; HEK293 landing pad (RPLP)
# Method in brief: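 Sequencing of reverse-transcribed, amplified circular RNA barcodes from anti-FLAG and anti-Myc immunoprecipitates provided the readout for an ALFA-nanobody-fused binder library recombined into HEK293 landing-pad cells. Those cells were induced with 2 μg mL^−1 doxycycline, transfected with a plasmid expressing a FLAG-tagged target and a Myc-tagged standard, and lysed after 48 h. Target abundance is the per-binder median log2 ratio of FLAG to Myc barcode read proportions. Only barcodes at a proportion of ≥10^−7 in both replicates and binders with ≥3 barcodes per replicate were kept, with a 10^−6 pseudocount added before the two replicates were pooled.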
# Sequence of GABARAP, O95166 (O95166 whole entry, the tested form may be a part): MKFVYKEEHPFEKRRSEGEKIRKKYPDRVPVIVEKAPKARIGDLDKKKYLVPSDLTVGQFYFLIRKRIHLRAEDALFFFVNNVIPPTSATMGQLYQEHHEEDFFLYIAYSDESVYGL
row,Binder,median log2 fold change
1,B1,0.14
2,B2,0.192
3,B3,-0.057
4,B4,0.296
5,B5,-0.00743
6,B6,0.389
7,B7,-0.378
8,B8,0.385
9,B9,-0.0913
10,B10,-0.183
11,B11,0.275
12,B12,0.182
13,B13,-0.115
14,B14,-0.181
15,B15,0.0843
16,B16,0.228
17,B17,-0.128
18,B18,0.0741
19,B19,0.217
